Sequences with one replicate were seen in a single cluster, so their values are uncertain.
System: ATP
Assay: switch fluorescence ratio, 500 uM ATP over buffer (Cy3 cluster intensity, sum of 5 cycles each) (fold (ratio)); higher = stronger signal-on switching upon ATP binding; sequences stand for … in TCGTCGGCAGCGTCAGATGTGTATAAGAGACAGTTTTTTTTTTTTTTTTTTTTTTTTT…TC
Details: aptamer strand: ATP DNA aptamer (quencher-CACCTGGGGGAGTATTGCGGAGGAAGG + anchor), 100 nM annealed; ATP concentration: 500 uM; one replicate
How it was run: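 For every switch-domain sequence, the fluorescence ratio is the mean of per-cluster values, each being summed target-cycle Cy3 intensity over summed buffer-cycle Cy3 intensity. Clusters outside 100-1000 RFU were excluded. On a modified Illumina MiSeq flow-cell, the Cy3-labelled switching-strand clusters were annealed to 100 nM quencher-labelled ATP aptamer, imaged in selection buffer and then after 15 min with 500 uM ATP at 22 °C. Five such cycles were run, with NaOH stripping and re-annealing between them.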
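Further: ATP exposure 15 min at 22 °C before imaging.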

Row | Sequence | switch fluorescence ratio
1 | CCGGTTTCGG | 1.05
2 | GTAACGCCAA | 1.21
3 | CTGCGTCAGG | 1.1
4 | TTCACGGATT | 0.977
5 | GGAAGGCCGC | 1.01
6 | TACATCCT | 1.08
7 | CTCTGACT | 1.02
8 | CTGAGTTGCT | 0.996
9 | AGGAGCCGGT | 1.03
10 | GCGTGGGTAG | 1.03
11 | TCGAATTACG | 1.1
12 | TGTTCGGGGC | 1.02
13 | TTCCGGAATA | 3.06
14 | CGAGGGTGAT | 1.08
15 | GTTGACGATT | 1.04
16 | CGTGAACATG | 1.02
17 | GTCGCCAGC | 0.987
18 | AGACGCTAGA | 1.05
19 | AGAGTATTCT | 0.975
20 | TGAGGGACAA | 1
21 | TTCACCTTTT | 1.03
22 | CAGCCTGTCC | 1.17
23 | ACTAGGTGAA | 1.16
24 | TGTTATGTAC | 1.1
25 | AGGACAGTAT | 0.998
26 | TCATAATTAT | 1.01

Row | Sequence | switch fluorescence ratio
27 | CTAGGCTTAG | 0.996
28 | AAATGAACGG | 1.08
29 | GGAGTGTCGC | 1.04
30 | GATGCGCCCT | 0.979
31 | GTCATCATGT | 1.04
32 | GCAATAAGAT | 1.09
33 | ACGGATTTCA | 1.03
34 | AGAGGCATGC | 0.985
35 | TTCGTCCACG | 0.984
36 | CACCGATGGG | 0.98
37 | TGATCTGCTA | 0.992
38 | AGTTTGGTA | 0.965
39 | GAGTCGCAGG | 0.997
40 | GGATGACTGA | 1.03
41 | CAGTCAGACG | 1.02
42 | TATGCTTTTA | 0.976
43 | ACGCCAAGAA | 1.25
44 | GACTGTAGGG | 1.02
45 | TTCGCTCTCG | 1.02
46 | CACGATCTAT | 0.993
47 | TTGTAGACGG | 0.99
48 | CTAACCGTGC | 1.35
49 | GTTTCTTGCT | 0.993
50 | AGTCGGCGCG | 0.997
51 | AGGTCCTTAA | 0.983
52 | ACGTGGGTTG | 0.997

Row | Sequence | switch fluorescence ratio
53 | CGCCTTTCT | 1.03
54 | ACCGAACGTT | 1.41
55 | GGTGTAAAGA | 0.987
56 | AAGAGAAACT | 1.03
57 | TGCTGCACCT | 1.13
58 | CGCTTACATC | 1.19
59 | TGGTTTCACG | 0.967
60 | TTACTGGGAG | 1.01
61 | CCGGGATCTC | 2.17
62 | TCGGAGTCGC | 1.07
63 | ACTTTTTCTT | 1.01
64 | GTGGTGGGCG | 1.01
65 | ACTTTCGAGA | 1.03
66 | CAGATGTTAT | 0.987
67 | CGGACATAGG | 0.989
68 | TAGGGTCTAA | 0.951
69 | GCACTCTTTT | 0.983
70 | AATGTTGCTT | 1.01
71 | CCAGTACTGG | 0.971
72 | TGGGTACTTC | 0.963
73 | CAGTAATTGG | 0.994
74 | TCAATGGCGC | 1.04
75 | AGTCCAGTTG | 1.09
76 | CAATCTCGGA | 0.991
77 | CCTGGGTTGT | 1.15
78 | CAAAGCAATT | 3.12

Row | Sequence | switch fluorescence ratio
79 | CGCGGGATCT | 1.07
80 | TGTGAATCCT | 1.04
81 | TTCCCACGGC | 1.04
82 | GAGCTGCCCG | 0.928
83 | TAGCCCTAGG | 1.01
84 | CGGGAGAAC | 0.982
85 | CTTATATGTA | 1.02
86 | ATGACCACGT | 1.05
87 | GGCAGAAA | 0.983
88 | TAAATAACCC | 1.02
89 | GAGCAGAGGA | 0.992
90 | TTTGAGCTAA | 0.993
91 | CACCATGCCC | 1.06
92 | ACTCGCCCGG | 5.37
93 | TTTATGATAT | 1.02
94 | TAGATCGCT | 0.978
95 | GCATTCTTGT | 1.02
96 | TACGGAAGGC | 1.03
97 | CGGTCACTTT | 0.99
98 | TAAGAACTGC | 1.04
99 | GGCGCACAAG | 1.03
100 | GCACTTTCAT | 1.01
101 | CTCTAAAGCG | 0.979
102 | ATAGGAATCG | 0.961
103 | GCTGATCGTT | 1
104 | AGGCTCAACT | 1

Row | Sequence | switch fluorescence ratio
105 | TCCTCGGTTC | 1.9
106 | GGGCTTGGTG | 1.06
107 | TTATCACCAC | 1.04
108 | ATAGAACGGA | 1.01
109 | TCGAGAG | 1
110 | GAGCTAGAGT | 1.04
111 | GGTCTATATG | 0.984
112 | CAACAACGGG | 1.05
113 | GAGGTCGGTG | 1.01
114 | GGTATCTTTT | 0.963
115 | CGTGGACCCG | 1.08
116 | GAGTTAAGGT | 0.962
117 | GAAGATTCGT | 0.969
118 | TCCCCCAAAA | 1.04
119 | ACGCCAGGAA | 1.08
120 | CGCCGAGAGG | 1
121 | ACAACGCCCA | 1.56
122 | TGACACAAAA | 1.04
123 | CGTGATGGAA | 1
124 | GGTGCGTGTA | 1.18
125 | TCTGTCCCGA | 0.972
126 | CAACCTCCGA | 2.28
127 | CTCGACATGA | 1.04
128 | TTCTCCGTTT | 1.1
129 | TTATCTCCAT | 0.975
130 | GATAGTAAAC | 1.03

Row | Sequence | switch fluorescence ratio
131 | CGGAGATATA | 0.982
132 | ATCTTTAGT | 1.02
133 | AAGCTGATA | 0.964
134 | TTGTGCTAGC | 0.975
135 | TGTTGCGAAC | 1.05
136 | CGCATCCCGA | 1.14
137 | ACGAGGGGCT | 0.964
138 | CCCGCGTTAT | 3.8
139 | TTATTCGCAC | 1.25
140 | GTTACGATC | 1.02
141 | ATAAAACTGT | 0.981
142 | GATGCTGTTT | 0.96
143 | CAATTATCCT | 1.05
144 | CTGATATGAA | 0.978
145 | ACGCAAAGAC | 2.74
146 | AGGCGAAAGT | 1.04
147 | TCAGTTAATG | 1.06
148 | AGATACGCTC | 1.05
149 | TAGCGGTGTT | 0.936
150 | ACGTAAACAC | 1.2
151 | GCGCACGGTT | 1.13
152 | CCTCTCTATG | 1.28
153 | GAAACATATA | 0.999
154 | GGCAATGAAT | 0.961
155 | CAGGCCTCGT | 1.01
156 | GTCAATTAGA | 1.03

Row | Sequence | switch fluorescence ratio
157 | GCATATCGGC | 0.992
158 | GGGTTTAAGC | 0.99
159 | CGGCTGGATT | 1.02
160 | TGCTTGTGAC | 1.01
161 | AAATAGTAAC | 1.05
162 | ATAATACCCG | 1.05
163 | GCTCGCAGCT | 1.09
164 | CAGAGAGCAG | 1.14
165 | GTTAACGTCG | 0.959
166 | GCCTCCCACG | 1.05
167 | GGACGGTTGG | 0.988
168 | CCAGAAGGCT | 1.02
169 | CATAGATTTC | 0.962
170 | AATTATCTA | 0.974
171 | GACGTGAAGA | 1.04
172 | GGCCGACGGG | 1.03
173 | TAAGCTGGGT | 1.03
174 | ATTGGAATAA | 0.963
175 | CTCAAGGCGT | 1.03
176 | TCATGTATA | 0.998
177 | TATAATCGCG | 0.985
178 | AGCAGATTAT | 0.977
179 | AATTAATTTC | 1.02
180 | TCTCTAACTC | 1.06
181 | AAAAACAATA | 0.971
182 | GTGGGTTGG | 0.98

Row | Sequence | switch fluorescence ratio
183 | ACAAACGGAA | 1.39
184 | TGCTCTTATT | 1.06
185 | TGAAACGT | 1.05
186 | TAGCCCTGTA | 0.962
187 | ATATAGCAAT | 2.68
188 | CATTTGCCGA | 0.997
189 | CGAGTTTCGT | 0.981
190 | TGCATGAGCA | 1.07
191 | TGAATCAGCG | 1.1
192 | ATCACTGAAT | 1.01
193 | CAGACAAAAC | 1.16
194 | ATGATCATGC | 0.986
195 | GTATCGGGTG | 1.07
196 | TAAGGATTTA | 0.95
197 | GGCAGAGACA | 1.01
198 | GCCGCGGTTT | 1.63
199 | ACTCACGGCG | 1.36
200 | TTAAGCCATC | 1.21
201 | GTGTTATGCC | 0.955

Reference: the supplement of paper PMC10126150
